The list shows a part of the results. These are noisy estimates, calculated here from bound and input reads.
These sequences were tested against T1, Pho4 (S. cerevisiae) (UniProt P07270) (assay: relative binding free energy (BET-seq); higher = weaker binding). Conditions: reference: library average.
T1 sequence: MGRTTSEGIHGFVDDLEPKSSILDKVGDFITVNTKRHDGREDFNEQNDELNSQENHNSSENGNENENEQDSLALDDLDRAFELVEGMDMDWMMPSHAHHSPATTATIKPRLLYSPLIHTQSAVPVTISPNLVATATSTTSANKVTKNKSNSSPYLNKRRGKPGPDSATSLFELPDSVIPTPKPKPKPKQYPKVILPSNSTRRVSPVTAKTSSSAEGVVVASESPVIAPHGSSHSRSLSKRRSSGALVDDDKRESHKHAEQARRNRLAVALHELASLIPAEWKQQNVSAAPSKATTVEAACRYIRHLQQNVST
TAGTGCACGTGGGCGA was tested, and the “relative binding free energy” value was -0.15 kcal/mol. In the case of GGGGTCACGTGAGTCA, the “relative binding free energy” value was 0.17 kcal/mol. In the case of GGCTTCACGTGTCGTT, the “relative binding free energy” value was 0.29 kcal/mol. For AAGGGCACGTGGCTGT, the “relative binding free energy” value was -0.24 kcal/mol. GTGTACACGTGTAAAT was tested, and the “relative binding free energy” value was 0.21 kcal/mol. For GTAAGCACGTGATGGC, the “relative binding free energy” value was 0.22 kcal/mol. With GGGTGCACGTGAACAG the “relative binding free energy” value was 0.27 kcal/mol. With GATTTCACGTGTGGTG the “relative binding free energy” value was 0.24 kcal/mol. In the case of CGGTGCACGTGAGCAT, the “relative binding free energy” value was 0.26 kcal/mol. CTTTGCACGTGCGAGG was tested, and the “relative binding free energy” value was 0 kcal/mol. With CTTTTCACGTGGTTCA the “relative binding free energy” value was 0.27 kcal/mol. For TGCGGCACGTGGTCTT, the “relative binding free energy” value was -0.26 kcal/mol. In the case of TTGTTCACGTGAGTCT, the “relative binding free energy” value was 0.46 kcal/mol. TGTATCACGTGTCTTG was tested, and the “relative binding free energy” value was 0.13 kcal/mol. AGAGGCACGTGGACTG was tested, and the “relative binding free energy” value was -0.13 kcal/mol. In the case of ACGGTCACGTGGGGTT, the “relative binding free energy” value was -0.02 kcal/mol. In the case of TGTTTCACGTGTTTAT, the “relative binding free energy” value was 0.28 kcal/mol. TAGAGCACGTGGTAGT was tested, and the “relative binding free energy” value was -0.23 kcal/mol. GGAAGCACGTGGTGGT was tested, and the “relative binding free energy” value was -0.14 kcal/mol. With GCTGACACGTGGTTGT the “relative binding free energy” value was 0.14 kcal/mol. With GCGTTCACGTGTATGG the “relative binding free energy” value was 0.4 kcal/mol. In the case of CGGTACACGTGGTTTT, the “relative binding free energy” value was 0.07 kcal/mol. In the case of CGGTTCACGTGATGAT, the “relative binding free energy” value was 0.51 kcal/mol. With GCTTGCACGTGCGGTA the “relative binding free energy” value was -0.05 kcal/mol. GTGTTCACGTGTATGC was tested, and the “relative binding free energy” value was 0.36 kcal/mol. For GGCGCCACGTGGGTTA, the “relative binding free energy” value was -0.17 kcal/mol. For AGCGGCACGTGTGCGT, the “relative binding free energy” value was -0.09 kcal/mol. For TTAGGCACGTGGCGAT, the “relative binding free energy” value was -0.11 kcal/mol. For GATGGCACGTGGAAGA, the “relative binding free energy” value was 0.09 kcal/mol. In the case of GGTCTCACGTGTGGAG, the “relative binding free energy” value was 0.36 kcal/mol. For AGTTGCACGTGATTTA, the “relative binding free energy” value was 0.07 kcal/mol. For TTTGTCACGTGAGCCG, the “relative binding free energy” value was 0.24 kcal/mol. TAGAGCACGTGTATAT was tested, and the “relative binding free energy” value was 0.09 kcal/mol. For AGGTCCACGTGTGCGT, the “relative binding free energy” value was 0.05 kcal/mol. GGTATCACGTGCGTTG was tested, and the “relative binding free energy” value was 0.14 kcal/mol. With GAGAGCACGTGTAATT the “relative binding free energy” value was 0.21 kcal/mol. With CGTGACACGTGGGCAG the “relative binding free energy” value was -0.02 kcal/mol. GGGACCACGTGGGGGT was tested, and the “relative binding free energy” value was -0.14 kcal/mol. With TTGTTCACGTGTGTTT the “relative binding free energy” value was 0.34 kcal/mol. TGGGCCACGTGATTTG was tested, and the “relative binding free energy” value was 0.23 kcal/mol. In the case of ATGTTCACGTGCGGTC, the “relative binding free energy” value was 0.16 kcal/mol. CGTTGCACGTGGGTGC was tested, and the “relative binding free energy” value was -0.27 kcal/mol. In the case of TGAAGCACGTGGCTGG, the “relative binding free energy” value was -0.1 kcal/mol. In the case of AGGCGCACGTGCGTTT, the “relative binding free energy” value was -0.07 kcal/mol. In the case of TGTGTCACGTGTGGGG, the “relative binding free energy” value was 0.2 kcal/mol. For AGGGCCACGTGAGTAG, the “relative binding free energy” value was 0.04 kcal/mol. TTGTGCACGTGTATTT was tested, and the “relative binding free energy” value was 0.1 kcal/mol. In the case of AGATCCACGTGGGGGA, the “relative binding free energy” value was -0.07 kcal/mol. With GCTGACACGTGGGTGT the “relative binding free energy” value was -0.15 kcal/mol. GTAGGCACGTGCGTCG was tested, and the “relative binding free energy” value was -0.09 kcal/mol. With GTCGTCACGTGAATTG the “relative binding free energy” value was 0.23 kcal/mol. In the case of GAAATCACGTGTTTTT, the “relative binding free energy” value was 0.26 kcal/mol. For ATACGCACGTGGCTTT, the “relative binding free energy” value was -0.1 kcal/mol. AAGGTCACGTGGGGCA was tested, and the “relative binding free energy” value was -0.06 kcal/mol. With AACGGCACGTGCGTGG the “relative binding free energy” value was -0.25 kcal/mol. With TGCTTCACGTGTGGCA the “relative binding free energy” value was 0.32 kcal/mol. With ATATTCACGTGTTCTG the “relative binding free energy” value was 0 kcal/mol. CATGTCACGTGATGTG was tested, and the “relative binding free energy” value was 0.23 kcal/mol. For AGTAGCACGTGAGGGA, the “relative binding free energy” value was 0.28 kcal/mol. For GGTATCACGTGAAGGC, the “relative binding free energy” value was 0.29 kcal/mol. For GTTCTCACGTGGGAGT, the “relative binding free energy” value was 0.17 kcal/mol. For GGTGGCACGTGGGGGT, the “relative binding free energy” value was -0.11 kcal/mol. CGCTGCACGTGTGGAG was tested, and the “relative binding free energy” value was 0.18 kcal/mol. In the case of TGCAACACGTGGGGAG, the “relative binding free energy” value was -0.12 kcal/mol. With TAGGCCACGTGTGTAG the “relative binding free energy” value was -0.07 kcal/mol. For GTGGGCACGTGCATGA, the “relative binding free energy” value was -0.09 kcal/mol. GGTAGCACGTGTTGGC was tested, and the “relative binding free energy” value was -0.08 kcal/mol. With GGTTTCACGTGGAGGC the “relative binding free energy” value was 0.27 kcal/mol. For TGGTTCACGTGCTGCG, the “relative binding free energy” value was 0.17 kcal/mol. With CTTTACACGTGGGTTG the “relative binding free energy” value was -0.01 kcal/mol. For CTTTACACGTGTGTTG, the “relative binding free energy” value was 0.1 kcal/mol. With ATTCGCACGTGAGGCG the “relative binding free energy” value was 0.12 kcal/mol. TTGGGCACGTGTAGCA was tested, and the “relative binding free energy” value was -0.19 kcal/mol. For TAAGGCACGTGCAGTA, the “relative binding free energy” value was -0.17 kcal/mol. GTGAGCACGTGGTATT was tested, and the “relative binding free energy” value was -0.06 kcal/mol. In the case of AATGACACGTGAGGGT, the “relative binding free energy” value was 0.2 kcal/mol. In the case of TCCGTCACGTGTAGGG, the “relative binding free energy” value was 0.01 kcal/mol. In the case of GGGTCCACGTGCGGGC, the “relative binding free energy” value was -0.03 kcal/mol. With TAGCGCACGTGCTGGG the “relative binding free energy” value was -0.1 kcal/mol. With GTTGACACGTGTTGGC the “relative binding free energy” value was -0.1 kcal/mol. For GTTAGCACGTGGGCGT, the “relative binding free energy” value was -0.14 kcal/mol. In the case of GTTTGCACGTGATGTT, the “relative binding free energy” value was 0.25 kcal/mol. In the case of GGTTACACGTGTCTTG, the “relative binding free energy” value was 0.15 kcal/mol. TATCGCACGTGGAGTG was tested, and the “relative binding free energy” value was -0.15 kcal/mol. In the case of TGGGCCACGTGGGATG, the “relative binding free energy” value was -0.17 kcal/mol. In the case of TCGTTCACGTGTGTCA, the “relative binding free energy” value was 0.16 kcal/mol. With GTATGCACGTGCAATG the “relative binding free energy” value was 0.12 kcal/mol. With GTGTGCACGTGGGCCA the “relative binding free energy” value was -0.09 kcal/mol. For GTCTACACGTGTTGTT, the “relative binding free energy” value was 0.09 kcal/mol. In the case of AGGTTCACGTGTTGAG, the “relative binding free energy” value was 0.16 kcal/mol. For GTAAACACGTGGGTGC, the “relative binding free energy” value was -0.07 kcal/mol. For TTAGACACGTGTTAGT, the “relative binding free energy” value was -0.05 kcal/mol. With TTTTGCACGTGTAGGC the “relative binding free energy” value was 0.09 kcal/mol. TGGTACACGTGGGGTC was tested, and the “relative binding free energy” value was -0.14 kcal/mol. CGTTGCACGTGCCGGT was tested, and the “relative binding free energy” value was -0.07 kcal/mol. In the case of GGGGGCACGTGGTTTT, the “relative binding free energy” value was 0.04 kcal/mol. With GAGAGCACGTGTGTTA the “relative binding free energy” value was -0.01 kcal/mol. In the case of GAGTTCACGTGCGTTA, the “relative binding free energy” value was 0.16 kcal/mol. AATTTCACGTGGCATG was tested, and the “relative binding free energy” value was 0.14 kcal/mol. CGAAACACGTGGGGAG was tested, and the “relative binding free energy” value was -0.09 kcal/mol. ATAGGCACGTGTCAGA was tested, and the “relative binding free energy” value was -0.06 kcal/mol. CATTACACGTGGGGAG was tested, and the “relative binding free energy” value was -0.14 kcal/mol. In the case of ATGCTCACGTGGGAGT, the “relative binding free energy” value was 0.25 kcal/mol. For AGTAACACGTGTGTGT, the “relative binding free energy” value was 0 kcal/mol. With CGGTTCACGTGTAAAG the “relative binding free energy” value was 0.27 kcal/mol. For TGAGACACGTGGGCAG, the “relative binding free energy” value was -0.09 kcal/mol. In the case of TGTGACACGTGGGGTT, the “relative binding free energy” value was -0.11 kcal/mol. TTATTCACGTGTCATG was tested, and the “relative binding free energy” value was 0.27 kcal/mol. In the case of TGTTCCACGTGTTGCG, the “relative binding free energy” value was 0.23 kcal/mol. GTATACACGTGTATAT was tested, and the “relative binding free energy” value was 0 kcal/mol. For TTGACCACGTGAGAGG, the “relative binding free energy” value was 0.2 kcal/mol. TTATACACGTGCGAGT was tested, and the “relative binding free energy” value was 0.03 kcal/mol. CCGTGCACGTGTTGGG was tested, and the “relative binding free energy” value was -0.22 kcal/mol. In the case of CAAGGCACGTGAAGGG, the “relative binding free energy” value was 0.09 kcal/mol. GTGTGCACGTGCTTAT was tested, and the “relative binding free energy” value was -0.05 kcal/mol. With GAATTCACGTGTGAGG the “relative binding free energy” value was 0.35 kcal/mol. In the case of GAATTCACGTGGTTTG, the “relative binding free energy” value was 0.3 kcal/mol. In the case of GGACGCACGTGTGTAG, the “relative binding free energy” value was -0.07 kcal/mol. With AAATGCACGTGTGGAT the “relative binding free energy” value was 0.08 kcal/mol. For TTTTTCACGTGGTGTT, the “relative binding free energy” value was 0.16 kcal/mol. ATGCGCACGTGAGTAG was tested, and the “relative binding free energy” value was 0.11 kcal/mol. With ATGTTCACGTGCGTTT the “relative binding free energy” value was 0.3 kcal/mol. In the case of TTGACCACGTGGGTGG, the “relative binding free energy” value was -0.23 kcal/mol. In the case of GGGCACACGTGAGGGT, the “relative binding free energy” value was 0.21 kcal/mol. With GGATGCACGTGGATAA the “relative binding free energy” value was 0.03 kcal/mol. With TAGTGCACGTGTGACG the “relative binding free energy” value was -0.09 kcal/mol. For AGGCTCACGTGGGGGC, the “relative binding free energy” value was 0.07 kcal/mol. TATTGCACGTGACGAT was tested, and the “relative binding free energy” value was 0.24 kcal/mol. GGGGTCACGTGTTAGA was tested, and the “relative binding free energy” value was 0.15 kcal/mol. For TTTGGCACGTGCGGAA, the “relative binding free energy” value was -0.09 kcal/mol. With AGACGCACGTGGAGTT the “relative binding free energy” value was 0.07 kcal/mol. TGTCGCACGTGGTTTG was tested, and the “relative binding free energy” value was -0.11 kcal/mol. With GGGTTCACGTGTATTA the “relative binding free energy” value was 0.35 kcal/mol. With GGTTTCACGTGTTTTC the “relative binding free energy” value was 0.36 kcal/mol. For AATTACACGTGGTTTG, the “relative binding free energy” value was 0.07 kcal/mol. With TTTGGCACGTGTCGTT the “relative binding free energy” value was -0.05 kcal/mol. TTCTTCACGTGTTGCG was tested, and the “relative binding free energy” value was 0.34 kcal/mol. In the case of AATTACACGTGAATGG, the “relative binding free energy” value was 0.22 kcal/mol. In the case of TGTATCACGTGCGTGG, the “relative binding free energy” value was -0.01 kcal/mol. With CTTGTCACGTGGGACA the “relative binding free energy” value was 0.16 kcal/mol. In the case of GTGTTCACGTGTGGGA, the “relative binding free energy” value was 0.33 kcal/mol. In the case of CCGTTCACGTGATGGG, the “relative binding free energy” value was 0.39 kcal/mol. GTTACCACGTGCTGGG was tested, and the “relative binding free energy” value was 0 kcal/mol. GTGGCCACGTGTAGGA was tested, and the “relative binding free energy” value was 0.03 kcal/mol. In the case of GGGAGCACGTGTATAG, the “relative binding free energy” value was -0.03 kcal/mol. With AGTGACACGTGGCATT the “relative binding free energy” value was -0.02 kcal/mol.
